Data as given in the RNAGym collection of RNA variant scans (doi:10.1073/pnas.2313332121).
Variants at the background level are over-represented here.

B1: TPR 5TU (parent)
chain: GGAUCUUCUCGAUCUAACAAAAAAGACAAAUCUGCCACAAAGCUUGAGAGCAUCUUCGGAUGCAGAGGCGGCAGCCUUCGGUGGCGCGAUAGCGCCAACGUUCUCAACUAUGACACGCAAAACGCGUGCUCCGUUGAAUGGAGUUUAUCAUG

Variants of: B1
Assay: polymerase ribozyme fitness, log enrichment relative to wild type (log ratio); higher = more active; in vitro selection for triplet polymerase activity
Method in brief: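 A heterodimeric triplet polymerase ribozyme had each of its subunits mutagenized by PCR into a library, which was transcribed. One round of in vitro selection, done in triplicate, annealed each library with a biotinylated primer, its partner subunit and triplets, then incubated it frozen at −7 °C before gel excision of extended constructs, streptavidin-bead capture and RT-PCR. Fitness is the logarithm of genotype enrichment relative to wild-type enrichment, based on Illumina sequencing of inputs and outputs and inverse-variance-weighted replicate averages. A base-2 logarithm is used, and genotypes were kept only with ≥10 input reads and ≥1 read per output.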

Polymerase ribozyme fitness (log ratio), ≤ -4.2:
GGAUCUUCUCGAUCUAACAAAAAUGACUAAUCUGCCACAAAGCUUGACAGCAUCAACGGAUGCAGAGGCGGCAGCCUUCGGUGGCGCGAUAGCGCCAGCGUUCUCAACUAUGACACGCAAAACGAGUGCUCCGUUGAAUGGAGUUUAUCAUG
GGAUCUUCUCGAUCUAACAAAAAGGACAAAUCUGCCACAAAGCUUGAGAGCAACUUCGGAUGCAGAGGCGGCAGCCUUCGGUGGCGCGAUAGCGCGAACGUUCUCAACUAUGACACGCAAAGCGCGUGCUCCGUUGAAUGGCGUUUAUCAUG
GGAUCUUCUCGAUCUAACAAAAAUGACAAGUCUGCCACAAAGCUUGAGAGCAUCUUCGGAUGCGGAGGCGGCAGCCUUCGGUGGCGGGAUAGCGCCAACGUUCUCAACUAUGACACGCAAAUCGUGUGCUCCGUUGAAUGGAGUUUAUUAUG
GGAUCUUCUCGAUCUAACAAAAAGGACAAAUCUUCCACAAAGCUUGAGAGCAUCUUCGGAUGCAGAGGCGGCAGCCUUCGGUUGCGCGAUCGCGCCAAUGUUCUCAUCUAUGACACGCAAAACGCGUGCUCCGUUGAAUGGAGUUUAUCAUG
GGAUCUUCUCGAUCUAACAAAAAGGACAAAGCUGCCACAAAGCUUGAGAGCAUCUUCGGAUGCAGAGGCGGCAGCCUUAGAUGGCGCGAUAGCGCCAACGGUCUCAGCUAUGACACGCAAAACGCGUGCUCCGUUGAAUGGAGUUUAUCAUG
GGAUCUUCUCGAUCUAACAAAAAGGACAAAUCUGCCACAAAGCUUGAGAGCAUCUUCGGAUGCAGAGGCGGCAGCCUUCGGUGGCGCGAUAGCGCCAACGUUCUCAACUAUGACACGCAAAACGCGUGCUCCGUUGAAUAGAGUUUAUCAUG
GGAUCUUCUCGAUCUAACAAAAAGGACAAAUCUGCCACAAAGCUUGAGAGCAUCUUCGGAUGCAGAGGCGGCAGCCUUCGGCGGCGCUAUAGCGCCAACGUUCUCAACUAUGACACGCAAAACGGGUGCUCCGUUGAAUGGAGUUUAUCAUG
GGAUCUUCUCGAUCUAACAAAAAUGCCAAAUCUGCCACAGAGCUUGAGAGCAUCUUCGGAUGCAGAGGCGGCAGCCUUCGGUGGCGUGAUAGCGCCAACGUUCCCAACUAUGACCCGAAAAACGCGUGCUCCGUUGAAUGGCGUUUAUCAUG
GGAUCUUCUCGAUCUAACAAAAAGGACAAAUCUGCCACAAAGCUUGAGAACAUCUUCGGAUGCAGAGGCGGCAGCCUUCGGUGGCGCGAUAGCGCCAACGUUCUCUACUAUGACACGCAAAACGCGUGCUCCGUUGAAUGGAGUUUAUCAUG
GGAUCUUCUCGAUCUAACAAAAAGGACAAAUCUGCCACAAAGCAUGAGAGCAUCGUCGGAUGCAGAGGCGGCAGCCUUCGGUGGAGCGAUAGCGUCAACAUUCUCAACUAUGACACGCAAAACGCGUGCUCCGUUGAAUGGAGUUUAUCAUG
GGAUCUUCUCGAUCUAACAAAAAUGACUAAUCAGCCACAACGCUUGAGAGCAUCGUCGGAUGCAGAGGCGGCAGCCUUCGGUGGCGCGAUAGCGCUAACGUUCUCAACUAUGACACGCAAAACGCGUGCUCCGUUGAAUGGAGUUUAUCAUG
GGAUCUUCUCGAUCUAACAAAAAGGACAAAUCUGCCACAAAGCUUGAGAGCAUCUUCGGAUGCAGAGGCGGCAGCCUUCGGUGUCGCGAUAGCGCCAACGUUCUCAACUAUGACACGCAAAACGCGUGCUCCGUUGAAUGGAGUUUAACAUC
GGAUCUUCUCGAUCUAACAAAAAUGACGAAUCUGCCAGAAAGCUUGAGAGCGUCUUCGGAUGCAGAGGCGGCAGCCUUCGGUGGUGCGAUAGCGCCAACGUUCUCAACUAUGAUACGCAAAACGCGUGCUCCGUUGAAUGGAGUUUAUCAUG
GGAUCUUCUCGAUCUAACAAAAAGGACAAAUCUGCCACAAAGCUUGAGAGCAUCUUCGCAUGCAGAUGCGGCAGCCUUCGGUGGCGCGAUAGCGCUAACGUUCUCAACUAUGACACGCAAAACGCGUGCUCCGUUGAAUGGAGUUUAUCAUG
GGAUCUUCUCGAUCUAACAAAAAGGACAAAUCUGCCACAAAGCUUGAGAGCAUCUUCGGAUGCAGAGGCGGCAGCCUUCGUUGGCGCGAUAGAGCCAACGUUGUCAACUAUCACACGCAAAACGCGUGCUCCGUUGAAUGAACUUUAUCAUG
GGAUCUUCUCGAUCUAACAAAAAUGACAUAUCUGCCAUAAAGCUUGAGAGCAUCUUCGGAUGCAGAGGCGGCAGCCUUCGGUGGCGCGAUAGCGCCAACGUUCUUAACUAUGACACUCAAAACGCGUGCUCCGUUGAAUGGAGUUUAUCAUG
GGAUCUUCUCGAUCUAACAAAAAGGACAAAUCGGCCACAAAGCUUGAGAGCAUCUUCGGAUGCAGAGGCGGCAGCCUUCGGUGGCGUGAUAGCGCCAACGGUCUCAACUAUGACACGCAAAACGCGUGCUCCGUUGAAUCGAGUUUAUCAUG
GGAUCUUCUCGAUCUAACAAAAAGGACAAAUCUACCACAAAGCUUGAGAGCAUCUUCGGAUGCAGAGGCGGCGGCCUUCGGUGGCGCGAUAGCGCCAACGUUCUCAUCUAUGACACGCAAAACGCGUGCUCCGGUGAAUGGAGUUUAUCAUG

Polymerase ribozyme fitness (log ratio), -4.06:
GGAUCUUCUCGAUCUAACAAAAAGGACAAAUCUGCCACAAAGCUUGAGAGCAUCUUCGGAUGCAGAGGCGGCAGCCUUCGGUGGCGCGAUAGCGCCAACGUUCUCAACUAUGACACGCAAAACUCGUGCUCCGUUGAAUGGAGUUUAUCAUG
